The IC50 comes from the fitted curve, where viability falls to half of the control; fits outside the tested doses are given as limits. The AUC spans the tested range (256-fold, ending at the top dose) of the same fit; values near 1 show little effect. For some assays here: The top dose, if marked as inferred, was derived from the fitted curves, not read from the paper.
Assays:
Assay in all cases: Viability of human cancer cell lines after 72 h of drug (GDSC screen)
XMD14-99 = compound: COc1cc(N2CCN(C)CC2)ccc1Nc1nc(N)c(C(=O)c2c(Cl)cccc2Cl)s1 [XMD14-99]; details: top dose 10.24 µM; top dose inferred
Method: (§1)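 Human cancer cell lines in 384-well plates, medium with 10% serum, drug for 72 h over a 256-fold dose range (nine 2-fold or five 4-fold steps up to the top dose). Adherent lines were fixed and stained with the nucleic acid dye Syto60, suspension lines read with resazurin; signal relative to control wells, capped at 0 and 100%. One two-parameter sigmoid per drug and line, fitted in a mixed model over all curves with the slope shared within a line.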

A-443654 = compound: Cc1n[nH]c2ccc(-c3cncc(OC[C@@H](N)Cc4c[nH]c5ccccc45)c3)cc12 [A-443654]; details: top dose 1.024 µM; top dose inferred
Method: as §1

AT-7519 = compound: O=C(NC1CCNCC1)c1n[nH]cc1NC(=O)c1c(Cl)cccc1Cl [AT-7519]; details: top dose 10.24 µM; top dose inferred
Method: as §1

Dasatinib = compound: Cc1nc(Nc2ncc(C(=O)Nc3c(C)cccc3Cl)s2)cc(N2CCN(CCO)CC2)n1 [Dasatinib]; details: top dose 1.28 µM
Method: as §1

FH535 = compound: Cc1cc([N+](=O)[O-])ccc1NS(=O)(=O)c1cc(Cl)ccc1Cl [FH535]; details: top dose 32 µM; top dose inferred
Method: as §1

Row | Cell Line | AUC (XMD14-99) | IC50 (XMD14-99) [µM] | AUC (A-443654) | IC50 (A-443654) [µM] | AUC (AT-7519) | IC50 (AT-7519) [µM] | AUC (Dasatinib) | IC50 (Dasatinib) [µM] | AUC (FH535) | IC50 (FH535) [µM]
1 | NB10 (neuroblastoma, adherent) | 0.962 | > 10.2 | 0.965 | > 1.02 | 0.919 | > 10.2 | 0.986 | > 1.28 | 0.792 | 14.1
2 | NB13 (neuroblastoma, adherent) | 0.99 | > 10.2 | 0.745 | 0.292 | 0.907 | > 10.2 | 0.91 | > 1.28 | 0.66 | 5.24
3 | NB69 (neuroblastoma, adherent) | 0.973 | > 10.2 | 0.714 | 0.237 | 0.804 | 4.43 | 0.595 | – | 0.892 | 30.2
4 | NB-4 (acute myeloid leukaemia, suspension) | 0.839 | 5.23 | 0.797 | 0.386 | 0.17 | 0.0836 | 0.991 | > 1.28 | 0.719 | 7.28
5 | NCI-H64 (small cell lung carcinoma, suspension) | 0.996 | > 10.2 | 0.728 | 0.232 | 0.333 | 0.251 | 0.988 | > 1.28 | 0.688 | 5.75
6 | NCI-H187 (small cell lung carcinoma, suspension) | 0.982 | > 10.2 | 0.758 | 0.384 | 0.481 | 0.567 | 0.982 | > 1.28 | 0.769 | 13.1
7 | NCI-H322M (lung adenocarcinoma, suspension) | 0.987 | > 10.2 | 0.924 | > 1.02 | 0.897 | > 10.2 | 0.908 | > 1.28 | 0.986 | > 32
8 | NCI-H345 (small cell lung carcinoma, suspension) | 0.99 | > 10.2 | 0.805 | 0.547 | 0.962 | > 10.2 | 0.974 | > 1.28 | 0.634 | 4.77
9 | NCI-H716 (large intestine, suspension) | 0.944 | > 10.2 | 0.98 | > 1.02 | 0.721 | 3.24 | 0.98 | > 1.28 | 0.922 | > 32
10 | NCI-H720 (lung carcinoid, suspension) | 0.989 | > 10.2 | 0.68 | 0.194 | 0.992 | > 10.2 | 0.958 | > 1.28 | 0.968 | > 32
11 | NCI-H747 (large intestine, adherent) | 0.912 | > 10.2 | 0.555 | 0.0935 | 0.485 | 0.579 | 0.512 | 0.0871 | 0.707 | 8.83
12 | NCI-H847 (small cell lung carcinoma, adherent) | 0.911 | 9.74 | 0.712 | 0.221 | 0.859 | 6.03 | 0.986 | > 1.28 | 0.594 | 3.43
13 | NCI-H1092 (small cell lung carcinoma, suspension) | 0.986 | > 10.2 | 0.873 | 0.994 | 0.627 | 1.44 | 0.978 | > 1.28 | 0.869 | 30
14 | NCI-H1304 (small cell lung carcinoma, suspension) | 0.988 | > 10.2 | 0.677 | 0.208 | 0.796 | 5.24 | 0.976 | > 1.28 | 0.935 | > 32
15 | NCI-H1355 (lung adenocarcinoma, adherent) | 0.976 | > 10.2 | 0.551 | 0.0936 | 0.928 | > 10.2 | 0.485 | 0.0713 | 0.543 | 2.77
16 | NCI-H1395 (lung adenocarcinoma, adherent) | 0.979 | > 10.2 | 0.957 | > 1.02 | 0.623 | 1.56 | 0.939 | > 1.28 | 0.961 | > 32
17 | NCI-H1581 (large cell lung carcinoma, semi-adherent) | 0.99 | > 10.2 | 0.811 | 0.492 | 0.832 | 5.83 | 0.969 | > 1.28 | 0.758 | 10.3
18 | NCI-H1666 (lung adenocarcinoma, semi-adherent) | 0.987 | > 10.2 | 0.986 | > 1.02 | 0.84 | 8.08 | 0.965 | > 1.28 | 0.891 | > 32
19 | NCI-H1770 (non-small cell lung carcinoma, suspension) | 0.992 | > 10.2 | 0.992 | > 1.02 | 0.947 | > 10.2 | 0.986 | > 1.28 | 0.784 | 11.9
20 | NCI-H1838 (lung adenocarcinoma, adherent) | 0.979 | > 10.2 | 0.964 | > 1.02 | 0.932 | > 10.2 | 0.808 | 0.842 | 0.942 | > 32
21 | NCI-H1869 (lung squamous cell carcinoma, adherent) | 0.985 | > 10.2 | 0.873 | > 1.02 | 0.652 | 1.8 | 0.749 | 0.464 | 0.691 | 7.43
22 | NCI-H1876 (small cell lung carcinoma, adherent) | 0.976 | > 10.2 | 0.734 | 0.301 | 0.551 | 0.885 | 0.934 | > 1.28 | 0.847 | 23.9
23 | NCI-H1975 (lung adenocarcinoma, adherent) | 0.978 | > 10.2 | 0.631 | 0.156 | 0.529 | 0.778 | 0.404 | 0.0419 | 0.707 | 8.42
24 | NCI-H2135 (non-small cell lung carcinoma, adherent) | 0.98 | > 10.2 | 0.912 | > 1.02 | 0.568 | 0.977 | 0.978 | > 1.28 | 0.718 | 8.11

— the supplement of paper PMC4967469
